This passage reports cytotoxicity call and growth inhibition call results from the antibiotic and cytotoxicity screens of Wong et al. (2023).

The test system of one assay is HSkMC. The assay is described as follows: cytotoxicity call (relative viability < 0.9). The settings on record: 10 µM.
The next assay has as its system S. aureus RN4220. In words: growth inhibition call (relative growth <= 0.2). The settings on record: 50 µM.

Each structure is given as a SMILES string. The list shows a part of the results.

In the case of `C[C@@H]1CN([C@H](C)CO)C(=O)Cc2cc(NC(=O)C3CC3)ccc2O[C@H]1CN(C)C(=O)Nc1ccccc1`, the cytotoxicity call with HSkMC is “inactive”. Further, in the assay with S. aureus RN4220, the growth inhibition call is “inactive”.

For the molecule `O=C(N[C@H]1CCS(=O)(=O)C1)N1CCCCC1`, the cytotoxicity call in the assay with HSkMC was “inactive”. For the same molecule, the growth inhibition call in the assay on S. aureus RN4220 is “inactive”.

On to `C[C@@H]1CN([C@@H](C)CO)C(=O)c2cc(NC(=O)CCCN(C)C)ccc2O[C@@H](C)CCCCO[C@H]1CN(C)Cc1ccc(C(F)(F)F)cc1`, for which the cytotoxicity call with HSkMC is “inactive”. Also, the growth inhibition call in the assay with S. aureus RN4220 was “inactive”.

On to `Cc1cccc(C)c1NC(=O)C1CCCCN1C.Cl` (stereo not given), for which the cytotoxicity call in the assay with HSkMC was “inactive”. The growth inhibition call in the assay on S. aureus RN4220 is “inactive”.

On to `O=c1c(O)c(-c2ccccc2)oc2cccc(O)c12`, for which, in the assay with HSkMC, the cytotoxicity call is “inactive”. Also, in the assay with S. aureus RN4220, the growth inhibition call is “inactive”.

Take `COc1ccc(S(=O)(=O)N(C)C[C@H]2Oc3ccc(NC(=O)CCCN(C)C)cc3C(=O)N([C@H](C)CO)C[C@@H]2C)cc1`: the cytotoxicity call with HSkMC was “inactive”. The growth inhibition call in the assay on S. aureus RN4220 is “inactive”.

For `C[C@H]1CN([C@@H](C)CO)C(=O)c2cc(NC(=O)Cc3ccccc3)ccc2O[C@H]1CN(C)S(=O)(=O)c1cccs1`, the cytotoxicity call with HSkMC was “inactive”. Moreover, the growth inhibition call with S. aureus RN4220 was “inactive”.

Regarding `Cn1sc(=O)n(Cc2ccccc2)c1=O`, the cytotoxicity call with HSkMC was “inactive”. Moreover, the growth inhibition call with S. aureus RN4220 was “active”.

Regarding `OCCn1cncn1`, the cytotoxicity call with HSkMC is “inactive”. Besides, in the assay with S. aureus RN4220, the growth inhibition call is “inactive”.

For the molecule `C[C@@H]1CN([C@H](C)CO)C(=O)c2cccc(NC(=O)Nc3ccc4c(c3)OCO4)c2O[C@@H]1CN(C)Cc1ccc(Oc2ccccc2)cc1`, the cytotoxicity call with HSkMC was “inactive”. Also, in the assay with S. aureus RN4220, the growth inhibition call is “inactive”.

Take `Cn1c(CC#N)n[nH]c1=S`: the cytotoxicity call in the assay on HSkMC is “inactive”. In addition, in the assay on S. aureus RN4220, the growth inhibition call was “inactive”.

On to `COCCNC(=O)C[C@@H]1CC[C@@H]2[C@H](COc3ccc(NC(=O)Nc4cccc(F)c4)cc3C(=O)N2C)O1`, for which the cytotoxicity call in the assay with HSkMC is “inactive”. Further, in the assay on S. aureus RN4220, the growth inhibition call is “inactive”.

Regarding `C[C@H](CO)N1C[C@H](C)[C@H](CN(C)Cc2cccc3c2OCCCO3)OCc2cn(nn2)CCCC1=O`, in the assay with HSkMC, the cytotoxicity call was “inactive”. Further, the growth inhibition call in the assay with S. aureus RN4220 is “inactive”.

In the case of `COCC(=O)N(C)C[C@H]1Oc2cc(C#CCC3CCCC3)ccc2S(=O)(=O)N([C@H](C)CO)C[C@H]1C`, the cytotoxicity call in the assay on HSkMC is “inactive”. The growth inhibition call in the assay on S. aureus RN4220 is “inactive”.

Consider `Cc1noc(C)c1S(=O)(=O)Nc1ccc2c(c1)C(=O)N([C@@H](C)CO)C[C@@H](C)[C@H](CN(C)C(=O)Nc1ccc(C(F)(F)F)cc1)OCCCC[C@H](C)O2`, for which the cytotoxicity call with HSkMC is “inactive”. In addition, the growth inhibition call with S. aureus RN4220 was “inactive”.

In the case of `C[C@@H]1CCCCO[C@@H](CN(C)C(=O)Nc2ccc(F)cc2)[C@H](C)CN([C@H](C)CO)C(=O)c2cc(NC(=O)Nc3ccc(F)cc3)ccc2O1`, in the assay on HSkMC, the cytotoxicity call is “inactive”. The growth inhibition call in the assay on S. aureus RN4220 was “inactive”.

Regarding `O=C1CN(S(=O)(=O)Cc2ccccc2)C[C@H]2[C@@H](c3ccc(C#Cc4ccc(F)cc4)cc3)[C@H](CO)N12`, the cytotoxicity call in the assay with HSkMC is “inactive”. Moreover, the growth inhibition call with S. aureus RN4220 is “inactive”.

On to `C[C@H]1CCCn2nncc2COCCNC1=O`, for which the cytotoxicity call with HSkMC is “inactive”. Besides, in the assay on S. aureus RN4220, the growth inhibition call is “inactive”.

In the case of `C[C@@H]1CN([C@H](C)CO)C(=O)c2cccc(NC(=O)c3nc4ccccc4s3)c2O[C@@H]1CN(C)Cc1ccc(C(=O)Nc2ccccc2N)cc1`, in the assay with HSkMC, the cytotoxicity call was “inactive”. For the same molecule, in the assay on S. aureus RN4220, the growth inhibition call was “inactive”.

Take `OC[C@H]1CC[C@@H]2O[C@H](CCc3ccc(C#Cc4ccccc4)cc3)[C@H](n3cc(-c4ccccc4)nn3)C[C@@H]2O1`: the cytotoxicity call with HSkMC is “active”. For the same molecule, the growth inhibition call with S. aureus RN4220 was “inactive”.

As to `C[C@H](CO)N1C[C@H](C)[C@@H](CN(C)CC2CCCCC2)Oc2ccc(NC(=O)Nc3ccc(F)cc3)cc2CC1=O`, the cytotoxicity call in the assay on HSkMC is “inactive”. Besides, the growth inhibition call in the assay with S. aureus RN4220 was “inactive”.

On to `CC12CCC3c4ccc(O)cc4CCC3C1CCC2=O` (stereo not given), for which the cytotoxicity call with HSkMC is “inactive”. In the assay with S. aureus RN4220, the growth inhibition call is “inactive”.

In the case of `CCS(=O)(=O)Nc1ccc2c(c1)C(=O)N(C)[C@@H]1CC[C@H](CC(=O)N[C@H]3CCN(Cc4ccccc4)C3)O[C@@H]1CO2`, the cytotoxicity call in the assay on HSkMC is “inactive”. Besides, in the assay on S. aureus RN4220, the growth inhibition call is “inactive”.

`C[C@H](CO)N1C[C@H](C)[C@H](CN(C)S(=O)(=O)c2cn(C)cn2)Oc2ccc(NC(=O)CCCN(C)C)cc2CC1=O`: in the assay with HSkMC, the cytotoxicity call is “inactive”. For the same molecule, the growth inhibition call with S. aureus RN4220 is “inactive”.

On to `Cc1noc(C)c1S(=O)(=O)Nc1ccc2c(c1)CC(=O)N([C@H](C)CO)C[C@@H](C)[C@H](CN(C)Cc1ccc(-c3ccccc3)cc1)O2`, for which the cytotoxicity call with HSkMC was “inactive”. For the same molecule, the growth inhibition call in the assay with S. aureus RN4220 is “inactive”.

`Cc1ccc(S(=O)(=O)Nc2ccc3c(c2)C(=O)N([C@@H](C)CO)C[C@H](C)[C@@H](CN(C)C(=O)Nc2cccc4ccccc24)OCCCC[C@@H](C)O3)cc1`: in the assay with HSkMC, the cytotoxicity call is “inactive”. In addition, in the assay with S. aureus RN4220, the growth inhibition call is “inactive”.

As to `COC[C@@H](O)CNc1ncnc2c1CCNCC2`, the cytotoxicity call in the assay on HSkMC was “inactive”. Further, the growth inhibition call with S. aureus RN4220 was “inactive”.

`Cc1ccc(S(=O)(=O)N(C)C[C@H]2OCCCC[C@@H](C)Oc3ccc(NS(=O)(=O)c4ccc(Cl)cc4)cc3C(=O)N([C@H](C)CO)C[C@@H]2C)cc1`: the cytotoxicity call in the assay with HSkMC is “inactive”. In addition, in the assay with S. aureus RN4220, the growth inhibition call is “inactive”.

Regarding `COc1ccccc1NC(=O)N(C)C[C@@H]1Oc2ncc(C#CCN(C)C)cc2C(=O)N([C@@H](C)CO)C[C@@H]1C`, the cytotoxicity call in the assay on HSkMC is “inactive”. Besides, in the assay on S. aureus RN4220, the growth inhibition call was “inactive”.

In the case of `C[C@H](CO)N1C[C@H](C)[C@@H](CN(C)S(=O)(=O)c2ccc(F)cc2)Oc2ccc(NC(=O)CCCN(C)C)cc2CC1=O`, in the assay on HSkMC (human skeletal muscle cells), the cytotoxicity call was “inactive”. The growth inhibition call in the assay on S. aureus RN4220 is “inactive”.
